Here are results for 153 variants from a collection of fitness landscapes (doi:10.1016/j.celrep.2020.107928).

Whole data set: some 81,000 sequences, median “one-hybrid fitness for binding parS DNA” near -0.17, cut for the highest 2% near 0.51. Some of the results follow.

B1: Caulobacter ParB omega fusion; a variant is named by its letters at X, in order, B8GW30 (parent)
chain: MESVVVGEPGMSEGRRGLGRGLSALLGEVDAAPAQAPGEQLGGSREAPIEILQRNPDQPRRTFREEDLEDLSNSIREKGVLQPILVRPSPDTAGEYQIVAGERAWRAAQRAGLKTVPIMVRELDDLAVLEIGIIENVQRADLNVLEEALSYKVLMEKFERTQENIAQTIGKSXSHVANXMRLLXLPDEVQSYLVSGELTAXHARAIAAAADPVALAKQIIEGGLSVRETEALARKAPNLSAGKSKGGRPPRVKDTDTQALESDLSSVLGLDVSIDHRGSTGTLTITYATLEQLDDLCNRLTRGI

The variants in the experiment derive from B1. Description: one-hybrid fitness for binding parS DNA (scaled: cognate 1, non-cognate 0); higher = stronger binding. The settings on record: with parS DNA site. In a few lines:
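On M9-minus-histidine containing 0.1 mM IPTG and 5 mM 3-AT, E. coli USO cells with a HIS3 reporter, site 19 bp from the promoter, grew 48 hours at 37°C to select Caulobacter ParB libraries randomised at four specificity codons. Plasmids from before and after were Illumina-sequenced, with three replicate libraries pooled and variants under 10 reads left out. Fitness is the log change in variant-to-wild-type read ratio, rescaled against cognate and non-cognate.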
For TKWI, the “one-hybrid fitness for binding parS DNA” value was at most 0.2.

Consider CWIT, for which the “one-hybrid fitness for binding parS DNA” value is at most 0.2.

For the variant GRLK, the “one-hybrid fitness for binding parS DNA” value is at most 0.2.

For the variant ELGS, the “one-hybrid fitness for binding parS DNA” value is at most 0.2.

Consider DKYR, for which the “one-hybrid fitness for binding parS DNA” value is at most 0.2.

Consider RHAY, for which the “one-hybrid fitness for binding parS DNA” value was determined as 0.403.

As for SDTT, the “one-hybrid fitness for binding parS DNA” value was at most 0.2.

With AETS, the “one-hybrid fitness for binding parS DNA” value is at most 0.2.

With TEID, the “one-hybrid fitness for binding parS DNA” value was at most 0.2.

As to TLSY, the “one-hybrid fitness for binding parS DNA” value is at most 0.2.

Take HCHS: the “one-hybrid fitness for binding parS DNA” value is at most 0.2.

For SPHE, the “one-hybrid fitness for binding parS DNA” value was at most 0.2.

As to LARP, the “one-hybrid fitness for binding parS DNA” value was at most 0.2.

In the case of APFG, the “one-hybrid fitness for binding parS DNA” value is at most 0.2.

As to CPHW, the “one-hybrid fitness for binding parS DNA” value is at most 0.2.

As to LYSP, the “one-hybrid fitness for binding parS DNA” value is at most 0.2.

NRRK: the “one-hybrid fitness for binding parS DNA” value is at most 0.2.

On to IYGR, for which the “one-hybrid fitness for binding parS DNA” value was at most 0.2.

On to RHQF, for which the “one-hybrid fitness for binding parS DNA” value was at most 0.2.

PTLH: the “one-hybrid fitness for binding parS DNA” value is at most 0.2.

Regarding TPMC, the “one-hybrid fitness for binding parS DNA” value is at most 0.2.

In the case of RDNN, the “one-hybrid fitness for binding parS DNA” value was at most 0.2.

Regarding ISQC, the “one-hybrid fitness for binding parS DNA” value is at most 0.2.

For LQRC, the “one-hybrid fitness for binding parS DNA” value is at most 0.2.

For VVYC, the “one-hybrid fitness for binding parS DNA” value is at most 0.2.

Take TLVC: the “one-hybrid fitness for binding parS DNA” value is at most 0.2.

For MDLK, the “one-hybrid fitness for binding parS DNA” value was at most 0.2.

Take QNIM: the “one-hybrid fitness for binding parS DNA” value was at most 0.2.

With KWTT, the “one-hybrid fitness for binding parS DNA” value was at most 0.2.

For the variant RYCI, the “one-hybrid fitness for binding parS DNA” value is at most 0.2.

For KPLW, the “one-hybrid fitness for binding parS DNA” value was at most 0.2.

Take DLDE: the “one-hybrid fitness for binding parS DNA” value is at most 0.2.

For the variant ACIV, the “one-hybrid fitness for binding parS DNA” value was at most 0.2.

As to DTES, the “one-hybrid fitness for binding parS DNA” value was at most 0.2.

TMFG: the “one-hybrid fitness for binding parS DNA” value was at most 0.2.

Take TGEK: the “one-hybrid fitness for binding parS DNA” value was at most 0.2.

As to NSYR, the “one-hybrid fitness for binding parS DNA” value was at most 0.2.

Regarding CAYC, the “one-hybrid fitness for binding parS DNA” value was at most 0.2.

Turning to KPFS, the “one-hybrid fitness for binding parS DNA” value was at most 0.2.

Regarding AMGS, the “one-hybrid fitness for binding parS DNA” value is at most 0.2.

Consider CETY, for which the “one-hybrid fitness for binding parS DNA” value was at most 0.2.

As for IDHG, the “one-hybrid fitness for binding parS DNA” value is at most 0.2.

On to HGLA, for which the “one-hybrid fitness for binding parS DNA” value was at most 0.2.

For RHTE, the “one-hybrid fitness for binding parS DNA” value was at most 0.2.

APRG: the “one-hybrid fitness for binding parS DNA” value is at most 0.2.

In the case of TGNL, the “one-hybrid fitness for binding parS DNA” value was at most 0.2.

Take AAPS: the “one-hybrid fitness for binding parS DNA” value is at most 0.2.

TWFR: the “one-hybrid fitness for binding parS DNA” value was at most 0.2.

In the case of CWTR, the “one-hybrid fitness for binding parS DNA” value was at most 0.2.

Turning to GCHV, the “one-hybrid fitness for binding parS DNA” value is at most 0.2.

Turning to ERDV, the “one-hybrid fitness for binding parS DNA” value is at most 0.2.

For the variant HCFT, the “one-hybrid fitness for binding parS DNA” value was at most 0.2.

With TSKW, the “one-hybrid fitness for binding parS DNA” value is at most 0.2.

For HWSK, the “one-hybrid fitness for binding parS DNA” value was at most 0.2.

Take SYDC: the “one-hybrid fitness for binding parS DNA” value was at most 0.2.

Take PNGT: the “one-hybrid fitness for binding parS DNA” value is at most 0.2.

As for ENPA, the “one-hybrid fitness for binding parS DNA” value is at most 0.2.

Consider IRRA, for which the “one-hybrid fitness for binding parS DNA” value was at most 0.2.

In the case of SNGL, the “one-hybrid fitness for binding parS DNA” value is at most 0.2.

IVHR: the “one-hybrid fitness for binding parS DNA” value was at most 0.2.

For the variant ATVR, the “one-hybrid fitness for binding parS DNA” value is at most 0.2.

In the case of RIPT, the “one-hybrid fitness for binding parS DNA” value is 0.549.

For TVSD, the “one-hybrid fitness for binding parS DNA” value was at most 0.2.

For the variant QCQP, the “one-hybrid fitness for binding parS DNA” value is at most 0.2.

Turning to WSNA, the “one-hybrid fitness for binding parS DNA” value is at most 0.2.

For the variant SRDD, the “one-hybrid fitness for binding parS DNA” value was at most 0.2.

As for KKRC, the “one-hybrid fitness for binding parS DNA” value is at most 0.2.

As for GGVI, the “one-hybrid fitness for binding parS DNA” value is at most 0.2.

As for RRTH, the “one-hybrid fitness for binding parS DNA” value is at most 0.2.

For GLIS, the “one-hybrid fitness for binding parS DNA” value is at most 0.2.

Take ELPS: the “one-hybrid fitness for binding parS DNA” value was at most 0.2.

For DEDC, the “one-hybrid fitness for binding parS DNA” value was at most 0.2.

As to AAGN, the “one-hybrid fitness for binding parS DNA” value is at most 0.2.

Regarding MQDW, the “one-hybrid fitness for binding parS DNA” value was at most 0.2.

Turning to GFRC, the “one-hybrid fitness for binding parS DNA” value was at most 0.2.

With VEFL, the “one-hybrid fitness for binding parS DNA” value is at most 0.2.

In the case of ATCK, the “one-hybrid fitness for binding parS DNA” value is at most 0.2.

On to HPTL, for which the “one-hybrid fitness for binding parS DNA” value is at most 0.2.

Consider DGAC, for which the “one-hybrid fitness for binding parS DNA” value was at most 0.2.

As to AMHR, the “one-hybrid fitness for binding parS DNA” value was at most 0.2.

For the variant CCFG, the “one-hybrid fitness for binding parS DNA” value is at most 0.2.

For RIME, the “one-hybrid fitness for binding parS DNA” value was found to be 0.213.

On to RLHW, for which the “one-hybrid fitness for binding parS DNA” value was 0.24.

In the case of VRVM, the “one-hybrid fitness for binding parS DNA” value is at most 0.2.

For the variant YRWC, the “one-hybrid fitness for binding parS DNA” value was at most 0.2.

Turning to MIEG, the “one-hybrid fitness for binding parS DNA” value is at most 0.2.

In the case of ERSA, the “one-hybrid fitness for binding parS DNA” value was at most 0.2.

With QLGI, the “one-hybrid fitness for binding parS DNA” value is at most 0.2.

With QRAP, the “one-hybrid fitness for binding parS DNA” value was at most 0.2.

As to SWYR, the “one-hybrid fitness for binding parS DNA” value was at most 0.2.

On to VHSR, for which the “one-hybrid fitness for binding parS DNA” value is at most 0.2.

Regarding FVDL, the “one-hybrid fitness for binding parS DNA” value is at most 0.2.

Consider FMVL, for which the “one-hybrid fitness for binding parS DNA” value was at most 0.2.

Take MLKE: the “one-hybrid fitness for binding parS DNA” value was at most 0.2.

For the variant KRTQ, the “one-hybrid fitness for binding parS DNA” value was at most 0.2.

As for YTSC, the “one-hybrid fitness for binding parS DNA” value was at most 0.2.

Regarding RMVC, the “one-hybrid fitness for binding parS DNA” value turned out to be 0.96.

As for PNRN, the “one-hybrid fitness for binding parS DNA” value was at most 0.2.

As to AEDR, the “one-hybrid fitness for binding parS DNA” value is at most 0.2.

On to SPLN, for which the “one-hybrid fitness for binding parS DNA” value is at most 0.2.

Turning to VPER, the “one-hybrid fitness for binding parS DNA” value is at most 0.2.

For YLHP, the “one-hybrid fitness for binding parS DNA” value is at most 0.2.

Consider TGYR, for which the “one-hybrid fitness for binding parS DNA” value is at most 0.2.

Turning to SSQT, the “one-hybrid fitness for binding parS DNA” value is at most 0.2.

In the case of GTYD, the “one-hybrid fitness for binding parS DNA” value was at most 0.2.

As for TTDA, the “one-hybrid fitness for binding parS DNA” value is at most 0.2.

Consider YMVS, for which the “one-hybrid fitness for binding parS DNA” value is at most 0.2.

Turning to TDSR, the “one-hybrid fitness for binding parS DNA” value is at most 0.2.

Take HLNP: the “one-hybrid fitness for binding parS DNA” value was at most 0.2.

For FKSM, the “one-hybrid fitness for binding parS DNA” value is at most 0.2.

For the variant DSTF, the “one-hybrid fitness for binding parS DNA” value was at most 0.2.

For the variant ASPM, the “one-hybrid fitness for binding parS DNA” value was at most 0.2.

On to AAGW, for which the “one-hybrid fitness for binding parS DNA” value was at most 0.2.

Take YPNP: the “one-hybrid fitness for binding parS DNA” value is at most 0.2.

On to NADG, for which the “one-hybrid fitness for binding parS DNA” value was at most 0.2.

Turning to QSCW, the “one-hybrid fitness for binding parS DNA” value was at most 0.2.

Take AFYK: the “one-hybrid fitness for binding parS DNA” value was at most 0.2.

As for YPPP, the “one-hybrid fitness for binding parS DNA” value was at most 0.2.

With DDNT, the “one-hybrid fitness for binding parS DNA” value was at most 0.2.

With LEQL, the “one-hybrid fitness for binding parS DNA” value was at most 0.2.

Regarding LDVG, the “one-hybrid fitness for binding parS DNA” value is at most 0.2.

Turning to KYRI, the “one-hybrid fitness for binding parS DNA” value is at most 0.2.

For the variant HEGI, the “one-hybrid fitness for binding parS DNA” value is at most 0.2.

On to GPRD, for which the “one-hybrid fitness for binding parS DNA” value was at most 0.2.

With RHYT, the “one-hybrid fitness for binding parS DNA” value was 0.806.

Regarding LCDG, the “one-hybrid fitness for binding parS DNA” value was at most 0.2.

Take SQTW: the “one-hybrid fitness for binding parS DNA” value is at most 0.2.

In the case of KGTM, the “one-hybrid fitness for binding parS DNA” value is at most 0.2.

As for DTNW, the “one-hybrid fitness for binding parS DNA” value is at most 0.2.

TTEQ: the “one-hybrid fitness for binding parS DNA” value was at most 0.2.

Take APVL: the “one-hybrid fitness for binding parS DNA” value is at most 0.2.

MTAR: the “one-hybrid fitness for binding parS DNA” value is at most 0.2.

As to QSSV, the “one-hybrid fitness for binding parS DNA” value was at most 0.2.

Turning to QLWA, the “one-hybrid fitness for binding parS DNA” value was at most 0.2.

Take TSQM: the “one-hybrid fitness for binding parS DNA” value is at most 0.2.

Regarding HGSF, the “one-hybrid fitness for binding parS DNA” value is at most 0.2.

Regarding NKPT, the “one-hybrid fitness for binding parS DNA” value was at most 0.2.

On to VYCL, for which the “one-hybrid fitness for binding parS DNA” value was at most 0.2.

Regarding WIQS, the “one-hybrid fitness for binding parS DNA” value was at most 0.2.

Regarding KSYI, the “one-hybrid fitness for binding parS DNA” value was at most 0.2.

As for TYQL, the “one-hybrid fitness for binding parS DNA” value was at most 0.2.

For the variant AHYT, the “one-hybrid fitness for binding parS DNA” value is at most 0.2.

Consider RLHR, for which the “one-hybrid fitness for binding parS DNA” value was at most 0.2.

For the variant TPDV, the “one-hybrid fitness for binding parS DNA” value was at most 0.2.

GEQC: the “one-hybrid fitness for binding parS DNA” value is at most 0.2.

For the variant QGRL, the “one-hybrid fitness for binding parS DNA” value is at most 0.2.

With GPGC, the “one-hybrid fitness for binding parS DNA” value is at most 0.2.

For KILC, the “one-hybrid fitness for binding parS DNA” value is at most 0.2.

Turning to LMFR, the “one-hybrid fitness for binding parS DNA” value was at most 0.2.

Consider TRCY, for which the “one-hybrid fitness for binding parS DNA” value was at most 0.2.

Consider DVDG, for which the “one-hybrid fitness for binding parS DNA” value is at most 0.2.

For the variant SFSR, the “one-hybrid fitness for binding parS DNA” value is at most 0.2.

For the variant RHDE, the “one-hybrid fitness for binding parS DNA” value was at most 0.2.
